Drawing on patent US20250333503A1 (COMPUGEN, published 2025), this text covers Kd for 1 molecule.

The experiment has as its target T1, human PVRL2-His recombinant protein (human, UniProt Q92692 32-360).
T1 construct: bought; also called His-tagged PVRL2; PVRL2 (CD112)
T1 sequence (looked up): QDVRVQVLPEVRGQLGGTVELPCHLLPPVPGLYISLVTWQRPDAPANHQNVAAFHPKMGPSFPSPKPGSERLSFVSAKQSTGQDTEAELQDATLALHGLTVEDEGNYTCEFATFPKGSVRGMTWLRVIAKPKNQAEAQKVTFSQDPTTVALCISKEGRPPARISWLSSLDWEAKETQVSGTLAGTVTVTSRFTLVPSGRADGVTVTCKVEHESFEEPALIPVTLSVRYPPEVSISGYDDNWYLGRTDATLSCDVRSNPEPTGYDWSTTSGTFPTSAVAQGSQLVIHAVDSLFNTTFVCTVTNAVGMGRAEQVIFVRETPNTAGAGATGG
Nature of the experiment: ELISA, PVRL2 coated, PVRIGHH in solution, one-site binding fit. In general terms: ELISA stands for enzyme-linked immunosorbent assay.

B1: PVRIG hECD-hIg fusion protein (ECD of human PVRIG fused to Fc of human IgG1) (Fc fusion)
chain: TPEVWVQVRMEATELSSFTIRCGFLGSGSISLVTVSWGGPNGAGGTTLAVLHPERGIRQWAPARQARWETQSSISLILEGSGASSPCANTTFCCKFASFPEGSWEACGSLPPSSDPGLSAPPTPAPILRAD[in this place human IgG1 Fc with changes]
modifications: Biotinylated in some assays. The protein acts as a bivalent Fc dimer; one chain is given.
notes: biotinylated in some assays; also called PVRIG H:H; PVRIGHH
By Kd is commonly meant the constant that tells how readily two partners part at equilibrium. With B1, the Kd is 13 nM.
